The other results are listed elsewhere or left out. At the low end of the ranking, values are background and their order means little.
tested on: MYC (p64) + MAX (p21), in MYC:MAX; assay: protein-binding microarray (anti-MAX antibody); conditions: PBM: 15 mM Tris-HCl pH 7.5, 100 mM KCl, 0.075% NP40, 7.5 mM beta-mercaptoethanol, 375 ng/ul BSA, 8 ng/ul poly(dA-dT):(dA-dT), 550 ng complex, 60 min, room …; high values mean tight binding; double strand, one strand shown; sequences stand for … in CCGGC…TTAATAGCTAAGATTACTATATCGACG

Sequence	binding signal (log2 normalized fluorescence)
TGACACTGGGTA	0.11
TGAAGCTTAGTA	-0.17
TGAATGGCAGTA	0.259
TGATACCGTGTA	0.222
TGAGACAATGTA	0.089
TGAGACTGCGTA	0.0741
TGATAATCCGTA	-0.0325
TGATTTACCGTA	0.118
TGAAGTTTTGTA	-0.0355
GCTCACGTGGTA	0.815
TGAGTCTCAGTA	-0.0895
TGAGAAGTGGTA	0.121
TGAGCGTTAGTA	0.0906
TGGCACCCGGTA	0.242
TGACACGGGGAA	0.402
TGACATGTTGTA	0.542
TGGCACGTGGGA	0.708
TGAACGCCAGTA	0.226
TGAACAAACGTA	0.0654
TGAGCGCTAGTA	0.11
TGAGGCTGTGTA	-0.0862
TGAGGTCAGGTA	-0.0439
TGAGACCTTGTA	0.0603

Sequence	binding signal (log2 normalized fluorescence)
TGAACTTAGGTA	0.164
TGAAGGATTGTA	0.123
TGACACGGACTA	0.356
TGAGGCACAGTA	0.131
TCACACATCGTA	0.444
TGACCGAGAGTA	0.109
TGACAGGGTGTA	0.0932
TGAAGAACAGTA	-0.132
TGACGAGCCGTA	0.0186
CTACACGTGGTG	0.779
TGAAGGGCTGTA	-0.0586
TGACCGCGGGTA	0.33
TGAATCTCGGTA	0.0404
TGAGGGTGTGTA	0.248
TGAACACCTGTA	0.407
TCTTACGTGGTA	0.358
TGATTGTTAGTA	-0.0854
TGACTGACTGTA	0.111
TGACAGGGCGTA	0.0524
GGAAACGGGGTA	0.475
TGACACGTAGTT	0.406
TGATACCGAGTA	-0.0874
TGACGCTCGGTA	0.159

Sequence	binding signal (log2 normalized fluorescence)
TGACCAGTGGTA	0.215
TGACACCTGCTA	0.552
TGATAGTATGTA	0.26
TGATACCAAGTA	-0.101
TGAGGCAGGGTA	-0.0778
TGACTCGTGGCA	0.584
TGACACCTGGTA	0.489
TGACCCACTGTA	0.259
TGAAAGCGTGTA	0.399
TGATATGAAGTA	-0.24
TGATCTAGCGTA	-0.0403
TGACTGTACGTA	0.279
TGAAATTGGGTA	-0.212
TGACACTTGGAA	0.157
TGATCTCGAGTA	0.17
TGACTCCATGTA	0.336
TGATTTTTAGTA	-0.146
TAACGGGTGGTA	0.318
TGATTTGACGTA	-0.0186
TGACTGCATGTA	0.456
GGAGACGATGTT	0.0761
TGAACACAAGTA	0.488
TTACGCGTGGTC	0.702

Sequence	binding signal (log2 normalized fluorescence)
TGAATAGCGGTA	-0.233
CAAGTTACTAAA	0.0735
TGACAAATAGTA	-0.318
TGACCCGAAGTA	0.0364
TGACGACCAGTA	0.154
TGAGGAATGGTA	0.136
TGAGACTGTGTA	0.0362
TGACGGATAGTA	-0.0182
TGAGCCGGCGTA	-0.213
TGAAGTTACGTA	0.0936
TGACGATAAGTA	0.0501
TGATTTTTCGTA	-0.212
TGATGAGTCGTA	-0.0527
TGACGGGATGTA	0.116
TGACCAATAGTA	0.0118
TGACCATAGGTA	0.235
TGACACGCGATT	0.502
TGATTGACCGTA	-0.0489
TTTCACGAGGTA	0.531
TGAAGAGGGGTA	0.288
TGAATGTAAGTA	0.187
TGAGTCTACGTA	-0.0769
TGATCGTATGTA	0.112

Sequence	binding signal (log2 normalized fluorescence)
TGACTGCTGGTA	0.071
TGAGTTGCCGTA	-0.0616
TGACACACCGTA	0.434
TGAGCAAGAGTA	-0.0325
TGATACAGCGTA	-0.0975
TGACACATAGTA	0.285
TCCCACGTGGTA	0.763
TGAGAATGCGTA	0.164
TGAGAGCCCGTA	0.0836
TGAGACGTGCTA	0.456
TGATTTGCGGTA	-0.103
CGACACGTGGAA	0.832
TGAAAAAATGTA	-0.0706
TGAAGTGGTGTA	0.143
TGAGCGGTCGTA	-0.0551
TGAATTAATGTA	-0.0278
TGAAAACAAGTA	-0.0491
TGAAATTCGGTA	0.155
TGACACTACGTA	0.203
TGAACCATAGTA	0.262
TGACATTTCGTA	0.178
TGATGTGTTGTA	0.277
TGATTCCACGTA	0.228

Sequence	binding signal (log2 normalized fluorescence)
TGAGCCGACGTA	-0.0379
TGAGATTCAGTA	-0.0776
TGAACTTATGTA	0.216
TGAGTTTAAGTA	-0.127
TGATGCGTTGTA	0.287
TGATAAAGTGTA	0.0229
TGAGGTATGGTA	0.28
TGAGGTCGAGTA	-0.192
TGATCCCCTGTA	0.00567
TGAACCCGGGTA	0.0812
TGATCATCAGTA	0.103
TGATCACCAGTA	0.2
TGACCGCCTGTA	0.344
TGATGCGGAGTA	0.0566
TGACTACGTGTA	0.397
TGAACTGATGTA	0.109
TGACGTGCTGTA	0.416
TGACTTTTTGTA	0.0526
TGAATCTTAGTA	-0.0392
TGACCCCAGGTA	0.0661
CTCCACGTGGTA	0.737
CTATTTGGACCC	-0.271
